# Measurements: PubChem BioAssay AID1963847 (Molecular Pharmacology Branch, DTP, NCI, 2024)
# The source holds more than one record for some entries. They are shown here; other results are not. There may be further records. The values listed for one entry repeat one measurement (runs, samples, wells, individuals or studies).
# Tested on: 415267-285-R-J2-PDC complex spheroid viability
# Test: Anticancer human tumor 415267-285-R-J2-PDC patient-derived breast carcinoma cell line growth inhibition [POLQ]
# Conditions: stronger effect = lower value
# Protocol: Multicellular complex tumor spheroid response to Polymerase (POL) inhibitors (novobiocin, ART-558, RP6685) in combination with a variety of drugs and investigational agents in selected tumor cell lines
# The POL inhibitors (novobiocin, ART-558, and RP6685) were evaluated both individually and in combination with standard of care and investigational anticancer small molecules within a complex spheroid model of solid tumors. . Complex spheroids include a stromal component modeled by human endothelial cells (HUVEC) and fibroblasts modeled by human mesenchymal stem cells (MSCs). The concentration ranges selected for each drug and investigational agent were based upon clinically achievable concentrations if the clinical Cmax of the agent was known.
# Compounds. The drugs and investigational agents: novobiocin (NSC847541), ART-558 (NSC835418), RP-6685 (NSC848927), peposertib (NSC802822), ceralasertib (NSC780249), elimusertib (NSC800525), camonsertib (NSC841442), AZD-1390 (NSC803789), olaparib (NSC753686), talazoparib (NSC767125), rucaparib (NSC756644), sotorasib (NSC818433), MRTX-1133 (NSC836407), SN-38 (NSC673596), topotecan (NSC609699), epotoside (NSC141540), doxorubicin (NSC123127), gemcitabine (NSC613327), 5-fluorouracil (NSC19893), paclitaxel (NSC125973), vemurafenib (NSC761431), MSA-2 (NSC828583), SN-011 (NSC837082), adavosertib (NSC754352), prexasertib (NSC758257), carboplatin (NSC241240) and oxaliplatin (NSC266046), were obtained from the National Cancer Institute (NCI) Developmental Therapeutics Program Chemical Repository (21). The FDA-approved anticancer drug set is available from the Developmental Therapeutics Program at https://dtp.cancer.gov/organization/dscb/obtaining/. […] If the clinical Cmax for an agent had not been determined, the highest concentration tested was 10 microM, except for SN-38, which was tested at a high concentration of 1 microM. […]
# 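Also: luminescence used as stand-in measure of viable cells; spheroids exposed to compounds for one week before readout; 100% = DMSO vehicle control viability.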
compound,measurement,setting,value
COc1cccc(OCCCN)c1-c1cc(Nc2cnc(C#N)cn2)n[nH]1,"viability, T/C",compound alone 0.01 µM,"8.47%, 35.3%, 30.7%"
Nc1ccn(C2OC(CO)C(O)C2(F)F)c(=O)n1 (stereo not drawn),"viability, T/C",compound alone 0.0316 µM,"6.23%, 7.91%, 34.5%"
COC1C(OC(N)=O)C(O)C(Oc2ccc3c(O)c(NC(=O)c4ccc(O)c(CC=C(C)C)c4)c(=O)oc3c2C)OC1(C)C (stereo not drawn),"viability, T/C",compound alone 1 µM,"99.7, 96.1, 95.4, 117, 98.1, 103, 91.9, 107, 95.8, 111, 91.5, 97.2, 109%"
